In the supplement of paper PMC9174493 one finds NF-kB reporter data, which are given here for 40 compounds.

Some of the results follow. Single values of this set are uncertain. Values with irradiation are relative to irradiated vehicle.
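Also: viability correction based on the alamar blue assay, with concentrations leaving 10% survival or less dropped.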

For the first assay, the system named is A549-Dual. The assay is described as follows: NF-kB reporter (SEAP) activity, viability-corrected, relative to vehicle (fold change vs vehicle); higher = more activation of STING-IRF / NF-kB immune response reporter. To be noted: 10 µM; irradiation: 8 Gy/4 fr.
In turn, `COC(=O)Nc1nc2cc(C(=O)c3ccccc3)ccc2[nH]1` [Mebendazole] yielded an NF-kB reporter of 0.728. Compound `COc1ccc(CC2c3cc(OC)c(OC)cc3CC[N+]2(C)CCC(=O)OCCCCCOC(=O)CC[N+]2(C)CCc3cc(OC)c(OC)cc3C2Cc2ccc(OC)c(OC)c2)cc1OC.O=S(=O)([O-])c1ccccc1.O=S(=O)([O-])c1ccccc1` (stereo unspecified) [Atracurium Besylate] came in with an NF-kB reporter of 0.629. `COS(=O)(=O)[O-].COc1cc(N)cn[n+]1-c1ccccc1` [Amezinium (methylsulfate)] came in with an NF-kB reporter of 0.498.

For the compound `Cc1cc(/C=C/c2ccc3cc(N(C)C)ccc3[n+]2C)c(C)n1-c1ccccc1.Cc1cc(/C=C/c2ccc3cc(N(C)C)ccc3[n+]2C)c(C)n1-c1ccccc1.O=C([O-])c1cc2ccccc2c(Cc2c(O)c(C(=O)[O-])cc3ccccc23)c1O` [pyrvinium], the NF-kB reporter stood at 1.12. The same measure, in the same setting: then `O=C(O)CSCC(=O)NC1CCSC1=O` (stereo unspecified) [Erdosteine], with 0.649; and `CC1(C)CC1C(=O)N/C(=C\CCCCSCC(N)C(=O)O)C(=O)O` (stereo unspecified) [Cilastatin], with 1.43. Compound `OC1COC(O)C(O)C1O` (stereo not drawn) [L(+)-Arabinose] returned an NF-kB reporter of 0.893. `CCn1cc(C(=O)O)c(=O)c2cc(F)c(N3CCN(C)CC3)cc21.CS(=O)(=O)O` [Pefloxacin Mesylate] displayed an NF-kB reporter of 0.827. For the compound `CC(Cc1ccc(O)c(O)c1)(NN)C(=O)O` (stereo unspecified) [Carbidopa], the NF-kB reporter was 0.939. `CCOC(=O)C(CCc1ccccc1)NC(C)C(=O)N1CCCC1C(=O)O.O=C(O)/C=C\C(=O)O` (stereo unspecified) [Enalapril Maleate] gave an NF-kB reporter of 0.888.

For the compound `CCCC1OC2CC3C4CCC5=CC(=O)C=CC5(C)C4C(O)CC3(C)C2(C(=O)CO)O1` (stereo unspecified) [Budesonide], the NF-kB reporter came to 0.401. `O=c1cc(-c2ccccc2)oc2cc(O)c(O)c(O)c12` [Baicalein] displayed an NF-kB reporter of 0.541.

`COc1ccccc1OCC(O)CO` (stereo unspecified) [Guaifenesin]: the NF-kB reporter is 0.515. For `CC(O)C(=O)[O-].[NH4+]` (stereo unspecified) [Ammonium lactate], the NF-kB reporter was 0.985. On the same count and under the same terms, then `CC1OC(Oc2c(-c3ccc(O)c(O)c3)oc3cc(O)cc(O)c3c2=O)C(O)C(O)C1O` (stereo unspecified) [Quercitrin], with 0.775; and `CC(C)CN(CC(O)C(Cc1ccccc1)NC(=O)OC1CCOC1)S(=O)(=O)c1ccc(N)cc1` (stereo unspecified) [Amprenavir], with 0.704.

Staying with this assay, now noted: 10 µM; irradiation: none.
Regarding `Nc1nc2c(ncn2COCCO)c(=O)[nH]1` [Aciclovir], the NF-kB reporter amounted to 0.894.

`O=[N+]([O-])c1cncn1CCN1CCOCC1` [Nimorazole] came in with an NF-kB reporter of 1.06. On the same count and under the same terms, then `NCC1OC(OC2C(N)CC(N)C(OC3OC(CO)C(O)C(N)C3O)C2O)C(O)C(O)C1O.O=S(=O)(O)O` (stereo unspecified) [Kanamycin sulfate], with 0.923.

The compound `CSCCC(N)C(=O)O` (racemic) [DL-Methionine] yielded an NF-kB reporter of 0.858.

`CC1Cc2ccccc2N1NC(=O)c1ccc(Cl)c(S(N)(=O)=O)c1` (stereo unspecified) [Indapamide] registered an NF-kB reporter of 0.884.

`Nc1ncnc2c1ncn2C1OC(COP(=O)(O)OP(=O)([O-])OP(=O)([O-])O)C(O)C1O.[Na+].[Na+]` (stereo unspecified) [Adenosine disodium triphosphate] gave an NF-kB reporter of 0.62. Same read-out and setting: then `Nc1ncnc2c1ncn2C1OC(CO)C(O)C1O.O` (stereo unspecified) [Vidarabine monohydrate], with 1.35. The compound `CC(COc1ccccc1Cc1ccccc1)N1CCCCC1.O=P(O)(O)O` (stereo unspecified) [Benproperine phosphate] registered an NF-kB reporter of 0.824. Take `CCOc1ccc(Cc2cc(C34OCC(CO)(O3)C(O)C(O)C4O)ccc2Cl)cc1` (stereo unspecified) [Ertugliflozin]: the NF-kB reporter came to 0.79.

In turn, `CCCOC(C(=O)OC1CCN(C)CC1)(c1ccccc1)c1ccccc1.Cl` [Propiverine hydrochloride] gave an NF-kB reporter of 0.714. `CC(=O)CCC(=O)O` [Levulinic acid] showed an NF-kB reporter of 0.845. Turning to `C#CC1(O)CCC2C3CCC4=CCCCC4C3CCC21C` (stereo unspecified) [Lynestrenol], the NF-kB reporter was found to be 0.773.

For `CCCCCCCCc1ccc(CCC(N)(CO)CO)cc1.Cl` [Fingolimod (FTY720) HCl], the NF-kB reporter was found to be 1.1. Still for that read-out and setting: then `CC1COc2c(N3CCN(C)CC3)c(F)cc3c(=O)c(C(=O)O)cn1c23` (stereo unspecified) [Levofloxacin], with 0.833.

As for `CC(=O)Oc1cc2c(s1)CCN(C(C(=O)C1CC1)c1ccccc1F)C2.Cl` (stereo unspecified) [Prasugrel Hydrochloride], the NF-kB reporter is 0.936. For the compound `O=C1OC2(c3ccc(O)cc3Oc3cc(O)ccc32)c2ccccc21` [Fluorescein], the NF-kB reporter was 0.817. The compound `[OH][Al]([OH])[OH]` [Aluminium hydroxide] displayed an NF-kB reporter of 0.893.

Compound `NCCC(O)C(=O)NC1CC(N)C(OC2OC(CN)C(O)C(O)C2O)C(O)C1OC1OC(CO)C(O)C(N)C1O.O` (stereo unspecified) [Amikacin hydrate] came in with an NF-kB reporter of 0.842.

The compound `NC(=O)N1c2ccccc2C=Cc2ccccc21` [Carbamazepine] gave an NF-kB reporter of 1.05. `CC(C)(O)c1ccccc1CCC(SCC1(CC(=O)[O-])CC1)c1cccc(/C=C/c2ccc3ccc(Cl)cc3n2)c1.[Na+]` (stereo unspecified) [Montelukast Sodium] yielded an NF-kB reporter of 0.498. On the same count and under the same terms, then `CCCc1nn(C)c2c(=O)[nH]c(-c3cc(S(=O)(=O)N4CCN(C)CC4)ccc3OCC)nc12` [Sildenafil], with 1.52; and `COC1/C=C/OC2(C)Oc3c(C)c(O)c4c(O)c(c(/C=N/N5CCN(C)CC5)c(O)c4c3C2=O)NC(=O)/C(C)=C/C=C/C(C)C(O)C(C)C(O)C(C)C(OC(C)=O)C1C` (stereo unspecified) [Rifampin], with 1.04. For the compound `CCCNC(=O)NS(=O)(=O)c1ccc(Cl)cc1` [Chlorpropamide], the NF-kB reporter is 0.792. For the compound `C=C(C)C1CCC2(CO)CCC3(C)C(CCC4C5(C)CCC(O)C(C)(C)C5CCC43C)C12` (stereo unspecified) [Betulin], the NF-kB reporter came to 1.03.

As for `COC(=O)Nc1nc2cc(C(=O)c3ccccc3)ccc2[nH]1` [Mebendazole], the NF-kB reporter was 1.67. Same read-out and setting: next, `COc1ccc(CC2c3cc(OC)c(OC)cc3CC[N+]2(C)CCC(=O)OCCCCCOC(=O)CC[N+]2(C)CCc3cc(OC)c(OC)cc3C2Cc2ccc(OC)c(OC)c2)cc1OC.O=S(=O)([O-])c1ccccc1.O=S(=O)([O-])c1ccccc1` (stereo unspecified) [Atracurium Besylate]: 0.726; `COS(=O)(=O)[O-].COc1cc(N)cn[n+]1-c1ccccc1` [Amezinium (methylsulfate)]: 0.949; `Cc1cc(/C=C/c2ccc3cc(N(C)C)ccc3[n+]2C)c(C)n1-c1ccccc1.Cc1cc(/C=C/c2ccc3cc(N(C)C)ccc3[n+]2C)c(C)n1-c1ccccc1.O=C([O-])c1cc2ccccc2c(Cc2c(O)c(C(=O)[O-])cc3ccccc23)c1O` [pyrvinium]: 3.6.

Take `O=C(O)CSCC(=O)NC1CCSC1=O` (stereo unspecified) [Erdosteine]: the NF-kB reporter is 0.859. `CC1(C)CC1C(=O)N/C(=C\CCCCSCC(N)C(=O)O)C(=O)O` (stereo unspecified) [Cilastatin] came in with an NF-kB reporter of 0.878.

In the case of `OC1COC(O)C(O)C1O` (stereo not drawn) [L(+)-Arabinose], the NF-kB reporter amounted to 0.73. `CCn1cc(C(=O)O)c(=O)c2cc(F)c(N3CCN(C)CC3)cc21.CS(=O)(=O)O` [Pefloxacin Mesylate] came in with an NF-kB reporter of 1.08. On the same count and under the same terms, then `CC(Cc1ccc(O)c(O)c1)(NN)C(=O)O` (stereo unspecified) [Carbidopa], with 0.881. Compound `CCOC(=O)C(CCc1ccccc1)NC(C)C(=O)N1CCCC1C(=O)O.O=C(O)/C=C\C(=O)O` (stereo unspecified) [Enalapril Maleate] showed an NF-kB reporter of 1.01. On the same count and under the same terms, next, `CCCC1OC2CC3C4CCC5=CC(=O)C=CC5(C)C4C(O)CC3(C)C2(C(=O)CO)O1` (stereo unspecified) [Budesonide]: 0.708; `O=c1cc(-c2ccccc2)oc2cc(O)c(O)c(O)c12` [Baicalein]: 0.713; `COc1ccccc1OCC(O)CO` (stereo unspecified) [Guaifenesin]: 0.661. Consider `CC(O)C(=O)[O-].[NH4+]` (stereo unspecified) [Ammonium lactate], for which the NF-kB reporter came out at 0.73.

`CC1OC(Oc2c(-c3ccc(O)c(O)c3)oc3cc(O)cc(O)c3c2=O)C(O)C(O)C1O` (stereo unspecified) [Quercitrin] had an NF-kB reporter of 0.598. `CC(C)CN(CC(O)C(Cc1ccccc1)NC(=O)OC1CCOC1)S(=O)(=O)c1ccc(N)cc1` (stereo unspecified) [Amprenavir] registered an NF-kB reporter of 1.15.
